Source: the supplement of paper PMC12582362
Structures can show the parent of a compound that is named as a salt. About 30 (2%) of roughly 1,500 compounds showed activity.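 How the source made its calls: active = robust z-score below -2; a few such results were not called.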 This is one part of the list.

Tested on: optoTopBP1 Flp-In 293 T-REx (HEK293) cells
Test: light-induced TopBP1 condensate (nuclear foci) count, plate-normalised robust z-score vs non-control wells; higher = more TopBP1 condensates (negative = condensation inhibitor), active = hit call of the paper
Conditions: 10 µM; incubation time 2 h

Structure (SMILES) | light-induced TopBP1 condensate (z-score)
CC(C)(C)NC[C@H](O)COc1cccc2c1CCCC2=O [(-) -Levobunolol hydrochloride] | inactive: 0.421
NS(=O)(=O)c1cc(C(=O)NN2C[C@@H]3[C@H]4CC[C@H](C4)[C@@H]3C2)ccc1Cl [Tripamide] | inactive: -0.842
Nc1ncn(C2OC(CO)C(O)C2O)c(=O)n1 (stereo not given) [Azacytidine-5] | inactive: 0.0662
CCOC(=O)C1=C(C)NC(C)=C(C(=O)OC)C1c1cccc(Cl)c1Cl (stereo not given) [Felodipine] | inactive: -0.577
C[C@H](CCC(=O)O)[C@H]1CC[C@H]2[C@@H]3C(=O)C[C@@H]4CC(=O)CC[C@]4(C)[C@H]3CC(=O)[C@]12C [Dehydrocholic acid] | inactive: 0.409
O=C1c2c(O)ccc(O)c2C(=O)c2c(NCCNCCO)ccc(NCCNCCO)c21 [Mitoxantrone dihydrochloride] | inactive: 0.271
CCN(CC)CCNC(=O)c1cc(Br)c(N)cc1OC [Bromopride] | inactive: 0.208
CCCCC(=O)N(Cc1ccc(-c2ccccc2-c2nnn[nH]2)cc1)[C@H](C(=O)O)C(C)C [Valsartan] | inactive: -1.04
OC(CCN1CCCCC1)(c1ccccc1)c1ccccc1 [Pridinol methanesulfonate salt] | inactive: -0.572
OCC(CO)N[C@H]1C[C@](O)(CO)[C@@H](O)[C@H](O)[C@H]1O [Voglibose] | inactive: 1.28
CC(C)NNC(=O)c1ccncc1 [Iproniazide phosphate] | inactive: 0.572
O=C1c2cccc(O)c2C(=O)c2c(O)cccc21 [1,8-Dihydroxyanthraquinone] | active: -2.97
CC12CC3CC(C)(C1)CC(N)(C3)C2 [Memantine Hydrochloride] | inactive: 0.9
C#C[C@]1(O)CC[C@H]2[C@@H]3CCC4=Cc5oncc5C[C@]4(C)[C@H]3CC[C@@]21C [Danazol] | inactive: 0.344
O=C(Nc1ccc([N+](=O)[O-])cc1Cl)c1cc(Cl)ccc1O [Niclosamide] | inactive: -1.32
CCOc1ccc(Cc2nccc3cc(OCC)c(OCC)cc23)cc1OCC [Ethaverine hydrochloride] | inactive: -0.0348
CCC[C@@H]1C[C@@H](C(=O)N[C@@H]([C@H]2O[C@H](SC)[C@H](O)[C@@H](O)[C@H]2O)[C@@H](C)O)N(C)C1 [Lincomycin hydrochloride] | inactive: -0.962
CCN(CC)CCN[C@@H](C(=O)OCCC(C)C)c1ccccc1 [Camylofine chlorhydrate] | inactive: -0.499
CN1CCCN=C1/C=C/c1cccs1 [Pyrantel tartrate] | inactive: 0.346
NNC(=O)c1ccncc1 [Isoniazid] | inactive: 0.382
CC1(C)O[C@@H]2C[C@H]3[C@@H]4C[C@H](F)C5=CC(=O)CC[C@]5(C)[C@H]4[C@@H](O)C[C@]3(C)[C@]2(C(=O)CO)O1 [Flurandrenolide] | inactive: 1.46
O=C(O)c1cccnc1 [Niacin] | inactive: 0.225
CCCCc1oc2ccccc2c1C(=O)c1cc(I)c(OCCN(CC)CC)c(I)c1 [Amiodarone hydrochloride] | inactive: 0.163

Structure (SMILES) | light-induced TopBP1 condensate (z-score)
O=c1[nH]c(=O)n([C@H]2C[C@H](O)[C@@H](CO)O2)cc1I [Idoxuridine] | inactive: 1.06
Cc1cccc(N(C)C(=S)Oc2ccc3ccccc3c2)c1 [Tolnaftate] | inactive: -1.04
CCN1CCCC1CNC(=O)c1cc(S(N)(=O)=O)ccc1OC (stereo not given) [Sulpiride] | inactive: 1.39
COc1ccc(-c2ccc3cc(C(=O)O)ccc3c2)cc1C12CC3CC(CC(C3)C1)C2 [Adapalene] | inactive: -1.74
Cc1ccc2c([nH]c(=O)c3c(=O)cc(C(=O)OCCC(C)C)oc32)c1C [Repirinast] | inactive: -0.432
NCCc1ccc(O)c(O)c1 [Dopamine hydrochloride] | inactive: 0.311
C[C@H](CS)C(=O)N1CCC[C@H]1C(=O)O [Captopril] | inactive: 1.17
CN(Cc1cc(Br)cc(Br)c1N)C1CCCCC1 [Bromhexine hydrochloride] | inactive: 0.154
CC1(C)O[C@@H]2C[C@H]3[C@@H]4C[C@H](F)C5=CC(=O)C=C[C@]5(C)[C@H]4[C@@H](O)C[C@]3(C)[C@]2(C(=O)CO)O1 [Flunisolide] | inactive: 0.645
COc1ccc(CNc2nc(N3CCC[C@H]3CO)ncc2C(=O)NCc2ncccn2)cc1Cl [Avanafil] | inactive: 0.878
Cc1c(Nc2ncccc2C(=O)O)cccc1C(F)(F)F [Flunixin meglumine] | inactive: 1.13
CC[C@H](c1ccc(O)cc1)[C@@H](CC)c1ccc(O)cc1 [Hexestrol] | inactive: 0.346
CC(C)(C)NC(=O)[C@H]1CC[C@H]2[C@@H]3CC[C@H]4NC(=O)C=C[C@]4(C)[C@H]3CC[C@]12C [Finasteride] | inactive: 0.181
Nc1nc(N)c2nc(-c3ccccc3)c(N)nc2n1 [Triamterene] | inactive: -0.439
CCCCOc1ccc(C(=O)CCN2CCCCC2)cc1 [Dyclonine hydrochloride] | inactive: -1.67
Cn1nnc2c(C(N)=O)ncn2c1=O [Temozolomide] | inactive: -0.835
CN1[C@@H]2CC[C@H]1C[C@@H](OC(=O)C(O)c1ccccc1)C2 (mixture of isomers) [Homatropine hydrobromide (R,S)] | inactive: 1.71
OC(CCN1CCCC1)(c1ccccc1)C1CCCCC1 (stereo not given) [Procyclidine hydrochloride] | inactive: -0.795
CC(CN(C)C)CN1c2ccccc2CCc2ccccc21 (stereo not given) [Trimipramine maleate salt] | inactive: 0.384
CC(C)C(=O)c1c(C(C)C)nn2ccccc12 [Ibudilast] | inactive: 0.181
C[N+](C)(C)C[C@H](O)CC(=O)[O-] [Levocarnitine] | inactive: 0.0352
CC(C)(C)C(O)/C=C/c1ccc2c(c1)OCO2 (stereo not given) [Stiripentol] | inactive: 1.26
